# Assay results as given in PubChem BioAssay AID1030 (National Center for Advancing Translational Sciences (NCATS), 2008).
# Out of some 220,000 compounds screened, about 16,000 (7.3%) were called active. Inconclusive results, whose numbers are uncertain, are shown with a selection of clear calls. Calls come from the whole dose curve; as a rule, active = well fitted inhibition curve with a large enough effect (not every such curve was filed as active); inconclusive = small, poorly fitted or top-dose-only effect, or another doubt; inactive = no such curve, though single readings can be large or run the other way. No potency is given beside an inconclusive call; the fits are too rough.
# Target: Aldehyde dehydrogenase 1A1 (Homo sapiens) (UniProt P00352)
# Test: qHTS Assay for Inhibitors of Aldehyde Dehydrogenase 1 (ALDH1A1)
# Details: Purified ALDH1A1, NADH fluorescence, propionaldehyde substrate; series mostly up to 75.3 µM
# Potency is the fitted concentration of half-maximal effect; tags give direction and shape of the fitted curve.
# UniProt P00352, sequence (P00352 whole entry, looked up): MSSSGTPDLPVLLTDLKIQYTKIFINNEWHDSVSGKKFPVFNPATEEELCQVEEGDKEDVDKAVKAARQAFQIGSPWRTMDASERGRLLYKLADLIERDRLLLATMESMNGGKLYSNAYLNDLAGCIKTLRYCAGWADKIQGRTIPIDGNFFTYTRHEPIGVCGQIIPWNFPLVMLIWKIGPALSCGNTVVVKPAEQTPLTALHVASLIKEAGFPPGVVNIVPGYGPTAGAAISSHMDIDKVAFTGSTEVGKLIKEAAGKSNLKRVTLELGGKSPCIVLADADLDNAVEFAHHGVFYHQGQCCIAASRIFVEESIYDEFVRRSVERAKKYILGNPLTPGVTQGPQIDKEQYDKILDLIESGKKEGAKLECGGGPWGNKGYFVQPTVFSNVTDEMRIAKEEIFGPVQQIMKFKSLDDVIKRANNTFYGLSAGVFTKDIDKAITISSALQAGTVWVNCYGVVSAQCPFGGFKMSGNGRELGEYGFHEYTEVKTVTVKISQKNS
row,Compound,Potency
1,Cc1ccc(C(=O)Cn2nnc(-c3ccccc3-n3cnnn3)n2)cc1,"inconclusive [inhibitor, single point]"
2,C(=N\N1CCN(Cc2cccc3ccccc23)CC1)/c1ccco1,"inconclusive [inhibitor, single point]"
3,CC(=O)c1cccc(NC(=O)N2CCCC(C(=O)c3cc(F)ccc3F)C2)c1 (stereo not given),"inconclusive [inhibitor, full curve]"
4,Cc1cccc(NC(=O)c2ccc(-c3ccccc3[N+](=O)[O-])o2)c1,active: 2.24 µM
5,COc1cc(SC)ccc1C(=O)Nc1ccon1,active: 20 µM
6,CNC(=O)/C=C1\NC(C)(C)Cc2c1ccc1ccccc21,"inconclusive [inhibitor, single point]"
7,COc1cc(/C=C2/NC(=O)N(Cc3ccccc3F)C2=O)cc(OC)c1OC,active: 2.51 µM
8,CCOC(=O)CN1C(=O)C(C)(C)Oc2ccc(C(=O)Nc3ccccc3)cc21,"inconclusive [inhibitor, single point]"
9,Cc1[nH][nH]c(=O)c1C(c1ccc(-c2ccc(Cl)cc2)o1)c1c(C)[nH][nH]c1=O,active: 22.4 µM
10,COc1ccc(N2CCN(c3nc4c(c(=O)n(C)c(=O)n4C)n3Cc3ccccc3)CC2)cc1,"inconclusive [inhibitor, partial curve]"
11,O=C(CCCN1C(=O)CCC1=O)Nc1ccc2c(c1)OCCO2,"inconclusive [inhibitor, single point]"
12,c1cn(-c2ncnc3sc4c(c23)CCCC4)cn1,"inconclusive [inhibitor, single point]"
13,O=C(NC(NC(=S)Nc1cccc(C(=O)O)c1)C(Cl)(Cl)Cl)OCc1ccccc1 (stereo not given),"inconclusive [inhibitor, single point]"
14,COCCn1c(SCC(=O)N2CCC(C)CC2)nc2ccccc2c1=O,active: 11.2 µM
15,O=c1c2cnn(-c3ccccc3)c2nc(-c2ccco2)n1-c1ccccc1,"inconclusive [inhibitor, partial curve]"
16,COc1ccc(N)cc1-n1cnnn1,"inconclusive [inhibitor, single point]"
17,Cc1ccc(-c2c(C#N)c(N)nc3c2CCCC3)o1,"inconclusive [inhibitor, full curve]"
18,CC(C)c1nnc(NC(=O)CSc2nc3ccccc3s2)s1,"inconclusive [inhibitor, single point]"
19,Cn1cnc([N+](=O)[O-])c1S(=O)(=O)c1cccc(Cl)c1,"inconclusive [inhibitor, single point]"
20,CCOC(=O)c1cc(CC)sc1NC(=O)c1ccc([N+](=O)[O-])c(N2CCOCC2)c1,"inconclusive [inhibitor, partial curve]"
21,Cc1cc(/C=C(\C#N)C(=O)Nc2ccccc2F)c(C)[nH]1,"inconclusive [inhibitor, partial curve]"
22,NC(=O)C1CCN(C(=O)Cc2ccc([N+](=O)[O-])cc2)CC1,"inconclusive [inhibitor, single point]"
23,CCOc1ccc(C(=O)N2CCCC2)cc1,inactive

row,Compound,Potency
1,COc1ccc(CCNC(=O)COC(=O)C2CCCCC2)cc1,"inconclusive [inhibitor, partial curve]"
2,O=C(COC(=O)c1ccccc1NC(=O)C1CC1)c1ccc2c(c1)OCCO2,"inconclusive [inhibitor, single point]"
3,CCC(=O)N1CCc2cc(S(=O)(=O)CCC(=O)N3CCc4ccccc4C3)ccc21,active: 12.6 µM
4,CC/C=C\[C@H](O)[C@H](O)C1=C(C)C(=O)[C@]2(O1)C(=O)N[C@@](OC)(C(=O)c1ccccc1)C2O (stereo not given in full),"inconclusive [inhibitor, single point]"
5,O=C(CCN1CCc2ccccc2CC1)c1ccc2c(c1)OCCO2,active: 0.112 µM
6,COc1cccc(C(=O)Nc2ccc(C(F)(F)F)n(C)c2=O)c1,"inconclusive [inhibitor, single point]"
7,CCC(C)Cn1c(S(=O)(=O)O)nc2ccccc21 (stereo not given),"inconclusive [inhibitor, single point]"
8,Cn1c(=O)cc(N2CCN(C(=O)c3ccco3)CC2)[nH]c1=O,"inconclusive [inhibitor, single point]"
9,Cc1cccn2c(CNCCCOc3cccnc3)c(C(=O)N3CCOCC3)nc12,inactive
10,CCn1c(SCC(=O)Nc2ccc3c(c2)OCCO3)nnc1-c1ccco1,"inconclusive [inhibitor, single point]"
11,COc1ccc(Br)cc1CN1CCN(C(=O)c2cccc(OC)c2OC)CC1,"inconclusive [inhibitor, single point]"
12,O=C(O)Cc1ccc(NC(=S)NCc2ccco2)cc1,inactive
13,CCn1c(N)c(C(=O)NCCCOC)sc1=S,active: 3.16 µM
14,S=C(NCCc1ccccc1)N1CCN(Cc2ccccc2)CC1,active: 7.94 µM
15,O=C(CCn1c(=O)c2ccccc2n(Cc2cccc([N+](=O)[O-])c2)c1=O)N1CCc2ccccc2C1,"inconclusive [inhibitor, single point]"
16,CN(C)S(=O)(=O)c1cccc(NC(=O)CCc2c[nH]c3ccccc23)c1,"inconclusive [inhibitor, single point]"
17,Cc1ccc(C(=O)CSc2nnc(CNc3ccc(F)cc3)o2)cc1,inactive
18,O=C(CNC(=O)c1cccs1)NCCN1CCC(Cc2ccccc2)CC1,"inconclusive [inhibitor, full curve]"
19,O=S(=O)(c1cccs1)N1CCC(Cc2ccccc2)CC1,"inconclusive [inhibitor, single point]"
20,COc1ccccc1CNc1ncnc2ccc(-c3cccc(C#N)c3)cc12,"inconclusive [inhibitor, single point]"
21,N#Cc1cc2c(nc1SCc1ccccc1)CCCCC2,inactive
22,COc1ccc(N2C(=O)CC(N3CCN(c4ccc(S(=O)(=O)N5CCCC5)cc4)CC3)C2=O)cc1 (stereo not given),active: 22.4 µM
